Test results from article PMC6834667.
No constants are given. Whether binding was seen depends on the method and setting. Binding seen in cells or lysates may run through a third protein. Some results given as binding are weak or reduced against the parent protein; the word gives no strength. For some of these results: Tags and fused reporters may be left off the sequences shown. Values belong to the molecule of their own block, whether it stands above or below them.

Amino acid sequences for entries named in this document (tags omitted). A change or cut given only in a name is not applied to a line headed by its entry.
UniProt Q14145: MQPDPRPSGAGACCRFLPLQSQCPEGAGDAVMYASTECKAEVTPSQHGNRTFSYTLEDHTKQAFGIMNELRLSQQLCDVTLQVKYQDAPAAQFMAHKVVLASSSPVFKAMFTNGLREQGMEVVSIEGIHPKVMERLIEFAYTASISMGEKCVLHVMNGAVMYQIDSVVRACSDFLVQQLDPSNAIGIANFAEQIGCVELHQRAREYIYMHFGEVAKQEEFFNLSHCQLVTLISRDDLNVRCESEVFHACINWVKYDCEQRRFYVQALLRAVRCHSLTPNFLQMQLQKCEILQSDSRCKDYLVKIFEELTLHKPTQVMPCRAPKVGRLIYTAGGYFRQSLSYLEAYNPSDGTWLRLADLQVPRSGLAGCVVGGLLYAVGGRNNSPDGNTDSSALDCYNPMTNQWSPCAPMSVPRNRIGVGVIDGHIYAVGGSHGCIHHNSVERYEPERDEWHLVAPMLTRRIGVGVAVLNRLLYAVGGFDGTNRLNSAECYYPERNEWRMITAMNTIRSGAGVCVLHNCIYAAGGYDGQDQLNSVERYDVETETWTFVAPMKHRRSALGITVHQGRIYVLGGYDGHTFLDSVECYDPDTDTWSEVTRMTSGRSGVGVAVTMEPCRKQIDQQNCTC
UniProt Q16236: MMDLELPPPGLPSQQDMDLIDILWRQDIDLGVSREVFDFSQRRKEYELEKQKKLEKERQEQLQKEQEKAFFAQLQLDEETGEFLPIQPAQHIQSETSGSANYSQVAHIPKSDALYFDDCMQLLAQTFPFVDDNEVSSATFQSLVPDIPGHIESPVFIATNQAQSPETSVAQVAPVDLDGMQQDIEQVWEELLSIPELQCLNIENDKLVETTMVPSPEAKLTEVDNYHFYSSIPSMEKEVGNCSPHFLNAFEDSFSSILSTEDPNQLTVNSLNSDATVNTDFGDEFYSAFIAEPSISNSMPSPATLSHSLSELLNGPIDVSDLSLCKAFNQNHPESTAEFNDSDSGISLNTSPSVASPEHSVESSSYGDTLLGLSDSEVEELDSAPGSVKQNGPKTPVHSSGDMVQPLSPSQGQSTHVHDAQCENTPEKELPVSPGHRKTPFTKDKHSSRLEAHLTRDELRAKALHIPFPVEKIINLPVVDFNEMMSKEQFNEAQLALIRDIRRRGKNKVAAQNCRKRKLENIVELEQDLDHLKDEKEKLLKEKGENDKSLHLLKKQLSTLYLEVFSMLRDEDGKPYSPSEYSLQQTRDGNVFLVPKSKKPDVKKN

Columns and labels:
Myc-Nestin = Myc-Nestin (UniProt P48681); test: co-IP; Myc-Nestin or its mutants transfected into NSCLC cells; whole-cell lysates in IP lysis buffer immunoprecipitated with anti-Myc and Protein G magnetic beads, overnight at 4 °C; blotted for endogenous proteins
[1] = biological target: Nestin-ESGA (1417E replaced by 1417A) (UniProt P48681); test: as above
[2] = biological target: Kelch-like ECH-associated protein 1 (Keap1) G333C, endogenous in A549 (human (endogenous in A549)) (UniProt Q14145); test: co-IP; endogenous proteins; NSCLC whole-cell lysates immunoprecipitated with anti-Keap1, blotted with anti-Nestin, anti-Keap1 and anti-Nrf2; also control or Nestin-knockdown cells treated with 10 μM MG132 for 4 h
[3] = biological target: Kelch-like ECH-associated protein 1 (Keap1), wild type, endogenous in H1299 (human (endogenous in H1299)) (UniProt Q14145); test: as above
Flag-tagged Keap1 = Flag-tagged Keap1 (UniProt Q14145); test: co-IP; truncated Myc-tagged Nestin proteins co-expressed with Flag-tagged Keap1 in HEK293FT cells; immunoprecipitation with Protein G beads and an anti-Flag antibody

binding [1]: no binding | binding (Myc-Nestin): binds
Molecule: Kelch-like ECH-associated protein 1 (Keap1), wild type, endogenous in H1299 (from UniProt Q14145 1-624)

binding [2]: binds | binding [3]: binds
Molecule: Nestin (endogenous) (from UniProt P48681 1-1621)

binding (Flag-tagged Keap1): binds
Molecule: Myc-Nestin full-length (N1-1621) (from UniProt P48681 1-1621)

binding (Flag-tagged Keap1): binds
B2: Myc-Nestin (1295-1621) (domain or fragment, UniProt P48681 1295-1621)
chain: LPDSTPLGFYLRSPTSPRWDPTGEQRPPPQGETGKEGWDPAVLASEGLEAPPSEKEEGEEGEEECGRDSDLSEEFEDLGTEAPFLPGVPGEVAEPLGQVPQLLLDPAAWDRDGESDGFADEEESGEEGEEDQEEGREPGAGRWGPGSSVGSLQALSSSQRGEFLESDSVSVSVPWDDSLRGAVAGAPKTALETESQDSAEPSGSEEESDPVSLEREDKVPGPLEIPSGMEDAGPGADIIGVNGQGPNLEGKSQHVNGGVMNGLEQSEEVGQGMPLVSEGDRGSPFQEEEGSALKTSWAGAPVHLGQGQFLKFTQREGDRESWSSGED

Continued, molecule first:

Molecule: NF-E2-related factor 2 (Nrf2), endogenous (from UniProt Q16236 1-605)
binding (Myc-Nestin): no binding

Molecule: Kelch-like ECH-associated protein 1 (Keap1) G333C, endogenous in A549 (from UniProt Q14145 1-624)
binding [1]: no binding | binding (Myc-Nestin): binds

B1: Myc-Nestin (641-1621) (domain or fragment, UniProt P48681 641-1621)
chain: GNLETFLFPGTENQELVSSLQENLESLTALEKENQEPLRSPEVGDEEALRPLTKENQEPLRSLEDENKEAFRSLEKENQEPLKTLEEEDQSIVRPLETENHKSLRSLEEQDQETLRTLEKETQQRRRSLGEQDQMTLRPPEKVDLEPLKSLDQEIARPLENENQEFLKSLKEESVEAVKSLETEILESLKSAGQENLETLKSPETQAPLWTPEEINQGAMNPLEKEIQEPLESVEVNQETFRLLEEENQESLRSLGAWNLENLRSPEEVDKESQRNLEEEENLGKGEYQESLRSLEEEGQELPQSADVQRWEDTVEKDQELAQESPPGMAGVENEDEAELNLREQDGFTGKEEVVEQGELNATEEVWIPGEGHPESPEPKEQRGLVEGASVKGGAEGLQDPEGQSQQVGAPGLQAPQGLPEAIEPLVEDDVAPGGDQASPEVMLGSEPAMGESAAGAEPGPGQGVGGLGDPGHLTREEVMEPPLEEESLEAKRVQGLEGPRKDLEEAGGLGTEFSELPGKSRDPWEPPREGREESEAEAPRGAEEAFPAETLGHTGSDAPSPWPLGSEEAEEDVPPVLVSPSPTYTPILEDAPGPQPQAEGSQEASWGVQGRAEALGKVESEQEELGSGEIPEGPQEEGEESREESEEDELGETLPDSTPLGFYLRSPTSPRWDPTGEQRPPPQGETGKEGWDPAVLASEGLEAPPSEKEEGEEGEEECGRDSDLSEEFEDLGTEAPFLPGVPGEVAEPLGQVPQLLLDPAAWDRDGESDGFADEEESGEEGEEDQEEGREPGAGRWGPGSSVGSLQALSSSQRGEFLESDSVSVSVPWDDSLRGAVAGAPKTALETESQDSAEPSGSEEESDPVSLEREDKVPGPLEIPSGMEDAGPGADIIGVNGQGPNLEGKSQHVNGGVMNGLEQSEEVGQGMPLVSEGDRGSPFQEEEGSALKTSWAGAPVHLGQGQFLKFTQREGDRESWSSGED
binding (Flag-tagged Keap1): binds
